# According to patent US10509035B2, “Antibodies, antibody drug conjugates and methods of use” (GAMAMABS PHARMA, priority 2015, dated 2019):
# B1: GM103 (conjugate)
# heavy: QVRLVQSGAEVKKPGASVKVSCKASGYTFTSYHIHWVRQAPGQRLEWMGWIYPGDDSTKYSQKFQGRVTITRDTSASTAYMELSSLRSEDTAVYYCTRGDRFAYWGQGTLVTVSS[human IgG1 constant region left out here]
# light: DIQMTQSPSTLSASVGDRVTITCRASSSVRYIAWYQQKPGKAPKLLTYPTSSLKSGVPSRFSGSGSGTEFTLTISSLQPDDFATYYCLQWSSYPWTFGGGTKVEIKRTVAAPSVFIFPPSDEQLKSGTASVVCLLNNFYPREAKVQWKVDNALQSGNSQESVTEQDSKDSTYSLSSTLTLSKADYEKHKVYACEVTHQGLSSPVTKSFNRGEC
# Assays:
# [1] = test system: COV434 WT cell line; conditions: low expressing COV434 WT cell line, 72 hours
# Experimental: (§1) Induction of apoptosis is confirmed by caspase activation, evaluated using the Apo-ONE Homogeneous Caspase 3/7 assay according to the manufacturer's instruction. Caspase 3/7 activation was measured multiplexed with the proliferation CellTiter Blue assay. […] Metabolic activity of viable cells were evaluated by adding the resazurin reagent for 2 hours at 37° C. and fluorescence was recorded at 544 nm excitation and 590 nm emission wavelengths. Then the caspase activity was measured in the same wells by adding the caspase substrate and cells were incubated for another two hours prior fluorescence recording at 485 nm excitation and 538 nm emission wavelengths.
# [2] = test system: COV434 AMHR-II transfected cell line; conditions: high expressing COV434 AMHR2 transfected cell line, 72 hours
# Experimental: as §1
# [3] = test system: COV434 AMHR-II transfected cell line; assay: In vitro cell proliferation / cytotoxic assay (CellTiter Blue); type: cell-based; conditions: 72 hours, ND: could not be calculated
# Experimental: (§2) The effects on cells viability was measured using resazurin dye reduction assay (CellTiter Blue, Promega). Cells were plated at 8000 cells per well onto 96-well plate (BD Falcon). […] Plates were incubated at 37° C. under 5% CO2 for a further 72 hours. […] CellTiter Blue reagent that enable quantification of viable cells by measurement of metabolic activity was added and plates were read with a fluorometer after a minimum of 2 hours with excitation and emission wavelengths of 544 nm and 590 nm respectively. Anti-proliferative effects were evaluated on COV434 AMHR-II transfected cell line (˜20000 receptors), COV434 WT (˜2000 receptors) and negative cell (no-expression).
# [4] = test system: COV434 AMHR-II transfected cell line; assay: Apoptosis induction, Annexin V-FITC / propidium iodide flow cytometry; type: cell-based; conditions: 5 μg/ml, 48 hours
# Experimental: The percentage of apoptotic was assessed using the Annexin V-Fluos Staining kit (Roche) according to the manufacturer's protocol. […] Carboplatin (300 μM) was used as positive control. After washes and centrifugation, the cell pellets were resuspended in the Annexin-V-Fluorescein and propidium iodide reagents. Following 10 minutes incubation at room temperature, samples were analyzed by flow cytometry on a BD Accuri™ C6 flow cytometer (BD Bioscience).
# [5] = test system: negative HCT116 cancer cell line; assay: In vitro cell proliferation / cytotoxic assay (CellTiter Blue); type: cell-based; conditions: Negative cell (no-expression), 72 hours; ND: could not be calculated; read-out: IC50 (nM) ± S.E.M
# Experimental: as §2, with “(no-expression). Data were analyzed using GraphPad Prism and IC50 values, defined as the concentration of antibodies that results in 50% reduction of viability compared with untreated cells, were determined using a 4-parameter non-linear regression model.” for “(no-expression).”
# [6] = test system: COV434 WT cell line; assay: as above; type: cell-based; conditions: 72 hours, ND: could not be calculated
# Experimental: as §2, with “(no-expression). Data were analyzed using GraphPad Prism and IC50 values, defined as the concentration of antibodies that results in 50% reduction of viability compared with untreated cells, were determined using a 4-parameter non-linear regression model.” for “(no-expression).”
# [7] = test system: COV434 AMHR-II transfected cell line tumor xenograft; assay: Dose response in COV434 AMHR-II transfected cell line tumor xenograft in nude mice; type: in vivo; conditions: for Tumor volumes (mean ± sem): once on day 0
# Experimental: A COV434 AMHR-II transfected cell line were cultured as described in example 2 and implanted in female athymic nude mice (Hsd:Athymic Nude-Fox1nu, Harlan Laboratories). 10×10^6 cells (100 μl) were injected in the interscapular mammary fat pad of the mice with matrigel. Mice were allocated to different group according to their tumor volume to give homogenous mean and median tumor volume in each treatment arms. For each group, 10 mice with established growing tumors and tumors volume ranging 60 to 200 mm^3 were included in the study. […] The corresponding vehicle (PBS) was administrated on the same day. During the whole experimental period, from grafting to study termination, animals were observed every day, for physical appearance, behavior and clinical changes. Tumor volume was evaluated by measuring tumor diameters three times a week and their size was calculated as mm^3=0.5× (tumor length, mm)×(tumor width, mm)^2 with the length and the width are the longest and the shortest diameters respectively.
molecule,measurement,setting,value
B1,activation of caspase 3/7,[1],effective to induce apoptosis by activation of the caspase 3/7
same,activation of caspase 3/7,[2],effective to induce apoptosis by activation of the caspase 3/7
same,IC50,"[3]; COV434 AMHR2^High (~20000 receptors), read-out: IC50 (nM) ± S.E.M",4.7 nM
same,Minimum Viability (%),[3]; COV434 AMHR2^High,10%
same,apoptosis induction,[4],effective to induce apoptosis
same,IC50,[5],> 1000 nM
same,IC50,"[6]; COV434 WT (~2000 receptors), read-out: IC50 (nM) ± S.E.M",208 nM
same,Minimum Viability (%),[6]; COV434 WT,12%
same,Tumor volumes (mean ± sem),"[7]; 1 mg/kg i.v., Day 0",86 ± 10 mm^3
same,Tumor volumes (mean ± sem),"[7]; 1 mg/kg i.v., Day 2",101 ± 15 mm^3
same,Tumor volumes (mean ± sem),"[7]; 1 mg/kg i.v., Day 4",116 ± 24 mm^3
same,Tumor volumes (mean ± sem),"[7]; 1 mg/kg i.v., Day 7",129 ± 43 mm^3
same,Tumor volumes (mean ± sem),"[7]; 1 mg/kg i.v., Day 9",142 ± 56 mm^3
same,Tumor volumes (mean ± sem),"[7]; 1 mg/kg i.v., Day 11",159 ± 72 mm^3
same,Tumor volumes (mean ± sem),"[7]; 1 mg/kg i.v., Day 14",199 ± 86 mm^3
same,Tumor volumes (mean ± sem),"[7]; 1 mg/kg i.v., Day 16",322 ± 146 mm^3
same,Tumor volumes (mean ± sem),"[7]; 1 mg/kg i.v., Day 21",647 ± 309 mm^3
same,Tumor volumes (mean ± sem),"[7]; 5 mg/kg i.v., Day 0",83 ± 7 mm^3
same,Tumor volumes (mean ± sem),"[7]; 5 mg/kg i.v., Day 2",83 ± 9 mm^3
same,Tumor volumes (mean ± sem),"[7]; 5 mg/kg i.v., Day 4",46 ± 8 mm^3
same,Tumor volumes (mean ± sem),"[7]; 5 mg/kg i.v., Day 7",17 ± 4 mm^3
same,Tumor volumes (mean ± sem),"[7]; 5 mg/kg i.v., Day 11",1 ± 0 mm^3
same,Tumor volumes (mean ± sem),"[7]; 5 mg/kg i.v., Day 14",0 ± 0 mm^3
same,Tumor volumes (mean ± sem),"[7]; 5 mg/kg i.v., Day 16",0 ± 0 mm^3
same,Tumor volumes (mean ± sem),"[7]; 5 mg/kg i.v., Day 21",0 ± 0 mm^3
same,Tumor volumes (mean ± sem),"[7]; 5 mg/kg i.v., Day 23",0 ± 0 mm^3
same,Tumor volumes (mean ± sem),"[7]; 5 mg/kg i.v., Day 25",0 ± 0 mm^3
same,Tumor volumes (mean ± sem),"[7]; 5 mg/kg i.v., Day 28",0 ± 0 mm^3
same,Tumor volumes (mean ± sem),"[7]; 5 mg/kg i.v., Day 32",0 ± 0 mm^3
same,Tumor volumes (mean ± sem),"[7]; 5 mg/kg i.v., Day 35",0 ± 0 mm^3
same,Tumor volumes (mean ± sem),"[7]; 5 mg/kg i.v., Day 39",0 ± 0 mm^3
same,Tumor volumes (mean ± sem),"[7]; 5 mg/kg i.v., Day 42",0 ± 0 mm^3
same,Tumor volumes (mean ± sem),"[7]; 5 mg/kg i.v., Day 56",8 ± 2 mm^3
same,Tumor volumes (mean ± sem),"[7]; 5 mg/kg i.v., Day 63",14 ± 5 mm^3
same,Tumor volumes (mean ± sem),"[7]; 5 mg/kg i.v., Day 70",52 ± 26 mm^3
same,Tumor volumes (mean ± sem),"[7]; 10 mg/kg i.v., Day 0",84 ± 8 mm^3
same,Tumor volumes (mean ± sem),"[7]; 10 mg/kg i.v., Day 2",66 ± 9 mm^3
same,Tumor volumes (mean ± sem),"[7]; 10 mg/kg i.v., Day 4",19 ± 4 mm^3
same,Tumor volumes (mean ± sem),"[7]; 10 mg/kg i.v., Day 7",6.78 ± 3^ mm^3
same,Tumor volumes (mean ± sem),"[7]; 10 mg/kg i.v., Day 9",0.5 ± 0 mm^3
same,Tumor volumes (mean ± sem),"[7]; 10 mg/kg i.v., Day 11",0 ± 0 mm^3
same,Tumor volumes (mean ± sem),"[7]; 10 mg/kg i.v., Day 14",0 ± 0 mm^3
same,Tumor volumes (mean ± sem),"[7]; 10 mg/kg i.v., Day 16",0 ± 0 mm^3
same,Tumor volumes (mean ± sem),"[7]; 10 mg/kg i.v., Day 21",0 ± 0 mm^3
same,Tumor volumes (mean ± sem),"[7]; 10 mg/kg i.v., Day 23",0 ± 0 mm^3
same,Tumor volumes (mean ± sem),"[7]; 10 mg/kg i.v., Day 25",0 ± 0 mm^3
same,Tumor volumes (mean ± sem),"[7]; 10 mg/kg i.v., Day 28",0 ± 0 mm^3
same,Tumor volumes (mean ± sem),"[7]; 10 mg/kg i.v., Day 32",0 ± 0 mm^3
same,Tumor volumes (mean ± sem),"[7]; 10 mg/kg i.v., Day 35",2 ± 1 mm^3
same,Tumor volumes (mean ± sem),"[7]; 10 mg/kg i.v., Day 39",2 ± 1 mm^3
same,Tumor volumes (mean ± sem),"[7]; 10 mg/kg i.v., Day 42",2 ± 1 mm^3
same,Tumor volumes (mean ± sem),"[7]; 10 mg/kg i.v., Day 70",2 ± 1 mm^3
same,inhibition of tumor growth compared to the vehicle control group,"[7]; once intravenously at 10, 5 or 1 mg/kg",dose dependent inhibition of tumor growth
